From ChEMBL document CHEMBL4888484, “Replenishing the malaria drug discovery pipeline: Screening and hit evaluation of the MMV Hit Generation Library 1 (HGL1) against asexual blood stage Plasmodium falciparum ,using a nano luciferase reporter read-out” (2022) come the findings set out here.

Several values for one entry are separate records, joined by “and”; a condition that tells them apart may be missing. Equal entries are not always repeated. Out of some 150,000 compounds screened, about 540 (0.36%) showed an effect of 50% or more. The list shows a part of the results.

The subject of the assay is Plasmodium falciparum. The experiment in a line: Primary screen in NF54 nanoGlo assay, in single point, at 2uM, 72h; a lower Z score goes with more inhibition. The format is functional, Erythrocyte. Conditions: timepoint 72 hour.

Turning to `CC(C)(C(=O)N[C@H]1CCc2ccccc21)S(=O)(=O)C1CC1`, the % Inhibition – broadly, the relative decrease from the control value, in per cent – was -4% and the Z score was 0.71. For `O=C(Nc1ccc(F)cc1)Nc1ccc(-c2cc3cc(F)ccc3[nH]2)cc1`, the “% Inhibition” value was -5% and the Z score is listed as 0.72.

For `CN1C[C@H]2CC[C@@H](C1)N(C(=O)c1ccccc1N(C)C)C2`, the “% Inhibition” value is on record as -1% and the Z score turned out to be 0.22. On the same counts, the results for `Cn1nc(CCC(=O)N2CCCC2)c2c1CCN(C(=O)C1CCCC1)C2` are -2% and 0.36. With `CCC1CN(C(=O)NCc2ccc(C)nc2)CC(C)O1` (centres undefined), the “% Inhibition” value stood at 2% and the Z score is reported as -0.28. In the case of `COc1ccc(S(=O)(=O)Oc2ccccc2CN(Cc2ccc(F)cc2)C(=O)CC(C)C)cc1`, the “% Inhibition” value is recorded as -9% and the Z score amounted to 1.28. Turning to `Cc1nnc([C@@]23COC[C@@H]2CN(Cc2ccccc2OC(C)C)C3)o1`, the “% Inhibition” value is on record as -15% and the Z score is 2.39. `COC(=O)[C@H]1CCc2nnc(Cc3ccccc3F)n2CC1`: the “% Inhibition” value is on record as -11% and the Z score came out at 1.71. Taken in the same sequence, the figures for `CCc1cc(=O)c2ccccc2n1C[C@H](O)COC(C)C` were -16% and 2.1. For `COC[C@H](NC(=O)Nc1c(C)cccc1Cl)c1ccnn1C`, the “% Inhibition” value worked out at 2% and the Z score is recorded as -0.29.

Turning to `CC(=O)NCc1ccc(C(=O)N[C@H]2CC[C@H](C)CC2)s1`, the “% Inhibition” value is listed as -12% and the Z score was determined as 1.17. Consider `Cc1cc(CCNC(=O)c2cccc(Cl)c2)nn1C`, for which the “% Inhibition” value is recorded as -8% and the Z score turned out to be 1.53. Regarding `COc1ccnc(N2CCC3(CC2)NC(=O)N(C)C3=O)n1`, the “% Inhibition” value is listed as -11% and the Z score is given as 1.48.

For `CS(=O)(=O)N[C@@H]1CC[C@H]2CCOc3ccccc3C(=O)N3CCN(CC4CCCCC4)C[C@H]3C(=O)NC[C@H]1O2`, the “% Inhibition” value is given as 13% and the Z score was -1.51. Take `Cc1nc(-c2cccs2)sc1C(=O)NC1CCCCC1`: the “% Inhibition” value is given as -13% and the Z score turned out to be 1.81. Regarding `O=C(CN(Cc1ccsc1)C[C@H]1CCCO1)Nc1ccc(Cl)cn1`, the “% Inhibition” value was -8% and the Z score was determined as 0.84.

As for `O=C(NCCCCN1CCOCC1)c1ccccc1O`, the “% Inhibition” value was -15% and the Z score amounted to 1.55. For `CC(C)NC(=O)N1CC=C(c2cn(C(C)C)c3ncccc23)CC1`, the “% Inhibition” value is reported as 6% and the Z score is reported as -1.1. Regarding `CC1CCN(C(=O)c2ccc(NC[C@H](O)c3ccco3)nc2)CC1`, the “% Inhibition” value is 3% and the Z score is listed as -0.29. As for `CC1CC2CCCCC2N1C(=O)Nc1cc(C(=O)N(C)C)ccn1` (centres undefined), the “% Inhibition” value is -11% and the Z score came to 0.96.

As to `Cc1ccc(N(C)C(=O)C2CCCN(S(=O)(=O)c3cc4c(cc3C)NC(=O)C(C)O4)C2)cc1` (centres undefined), the “% Inhibition” value was determined as 1% and the Z score is listed as -0.22. On the same counts, the results for `COCCOc1ccnc(-c2noc([C@@H]3CCCN3Cc3ccc(C(=O)O)cc3)n2)c1` are 14% and -1.69. For `COc1ccc(C(=O)Nc2ccc(N3CCC(C)CC3)c(C(=O)NCc3ccc(F)cc3)c2)c(OC)c1`, the “% Inhibition” value is -8% and the Z score is given as 1.09. Consider `Cc1cc(-c2nn(-c3ccccc3F)cc2CN[C@H]2CCCCNC2=O)c(C)s1`, for which the “% Inhibition” value is reported as -1% and the Z score stood at 0.09.

As for `Clc1ccc(-c2csc(-c3ccco3)n2)cc1`, the “% Inhibition” value is reported as -9% and the Z score is listed as 0.82.

Regarding `COc1cccc(CNC(=O)c2nnc(-c3cccc(Cl)c3)o2)c1`, the “% Inhibition” value is given as -4% and the Z score is 0.58. Regarding `O=C(C1=C(c2ccccc2)S(=O)(=O)CCO1)N(Cc1ccccc1F)c1ccccn1`, the “% Inhibition” value is 8% and the Z score was -0.98. On the same counts, the results for `CN(C)c1cc(C(F)(F)F)nc(N2CC[C@@]3(CCCOC3)C2)n1` are -9% and 1.07. Taken in the same sequence, the figures for `Cn1cc(C(=O)Nc2n[nH]c3ccc(F)cc23)c(C(C)(C)C)n1` were -14% and 2.55. As to `CC(C)(C(=O)N1CCC[C@H](CN2CCOCC2)C1)c1ccccc1F`, the “% Inhibition” value was 8% and the Z score is given as -1.04.

`O=C(NCc1ccc2c(c1)OCO2)c1cc(N[C@H]2CCCNC2=O)ccn1`: the “% Inhibition” value is -12% and the Z score was 1.5. Take `COc1cc(CN2CCn3nc(C(=O)NC(c4ccccc4)c4ccccc4)cc3C2=O)cc(OC)c1`: the “% Inhibition” value is reported as 7% and the Z score is given as -1.11. With `CCOCCC(=O)N1C[C@H](c2ccc(C)cc2)[C@@H](N(C)C)C1`, the “% Inhibition” value is given as -17% and the Z score is listed as 2.14. `O=C(Nc1ccc(F)c(Cl)c1)c1cc(S(=O)(=O)N2CCCc3ccccc32)ccc1F`: the “% Inhibition” value was determined as 5% and the Z score is -0.56. As for `COc1ccc(-c2noc(CN3CCC[C@H]3c3cccs3)n2)cc1`, the “% Inhibition” value came to 17% and the Z score is listed as -1.95. Take `CCCc1cc(=O)n(-c2ccc(C(=O)N[C@H]3CCCNC3=O)cc2)[nH]1`: the “% Inhibition” value is given as 11% and the Z score is -1.97.

On to `O=C(c1cn(C2CCOC2)nn1)N1CCOC(c2ccsc2)C1` (centres undefined), for which the “% Inhibition” value is recorded as -4% and the Z score is 0.46.

As to `O=C1CN(C(=O)C2CC2c2ccc(Cl)cc2Cl)CCN1` (centres undefined), the “% Inhibition” value was -8% and the Z score is listed as 1.17. With `O=C(Nc1ccc(F)cc1F)[C@@]1(CCO)CCN(Cc2ccccc2)C1`, the “% Inhibition” value is recorded as -7% and the Z score was determined as 1.29. On the same counts, the results for `O=C(c1ccc(-c2noc(C3CCCC3)n2)cc1)N1CCN(c2ccccc2)CC1` are -11% and 1.81. Regarding `Cc1cc(N2CC(n3nc(C)cc3C)C2)nc(N)n1`, the “% Inhibition” value was 1% and the Z score was -0.15. Taken in the same sequence, the figures for `Cc1ccn(CC(=O)N2CCC[C@H](CCc3ccccc3)C2)n1` were -1% and 0.12. Regarding `O=S(=O)(c1cc(F)cc(Cl)c1)N1CCC12COC2`, the “% Inhibition” value was -5% and the Z score was 0.74.

As to `O=c1[nH]nc2n1CCN(Cc1ccccc1F)CC2`, the “% Inhibition” value is 7% and the Z score is recorded as -0.85.

Take `Cn1ccc2cc(CCC(=O)NCCN3CCCCC3)ccc21`: the “% Inhibition” value was -1% and the Z score was found to be 0.07. Turning to `CCN(Cc1nc2cc(OC)c(OC)cc2c(=O)[nH]1)C(=O)CN1C(=O)NC2(CCCCC2C)C1=O` (centres undefined), the “% Inhibition” value is reported as -6% and the Z score is reported as 1.11.

With `COC(=O)c1ccc(C(=O)NCC2CCC(c3nc4ccccc4n3C)CC2)cc1` (centres undefined), the “% Inhibition” value was -8% and the Z score was determined as 0.96. With `COC1CN(C2CC(=O)N(CC(F)(F)F)C2=O)CCC1C` (centres undefined), the “% Inhibition” value is on record as -8% and the Z score amounted to 0.84. In the case of `COc1ccc(CNC(=O)CN2CCN(C(=O)Nc3ccccc3)CC2=O)cc1`, the “% Inhibition” value is listed as -17% and the Z score is 2.16. Taken in the same sequence, the figures for `CCS(=O)(=O)c1ccc(-c2c[nH]nc2C)s1` were -12% and 1.49. Consider `Cc1nc(-c2cc(S(=O)(=O)NC3CCCCCC3)cn2C)sc1C(=O)N1CCCCC1`, for which the “% Inhibition” value is -11% and the Z score amounted to 2.06.

In the case of `O=C(O)[C@@H]1CCCN1C(=O)Cc1ccc(Cl)s1`, the “% Inhibition” value is -6% and the Z score is 0.87. `COCC(=O)N(Cc1csc(COc2ccc(Cl)cc2)n1)C1CC1`: the “% Inhibition” value was 4% and the Z score is recorded as -0.48. As to `c1ccc2c(OC3COC3)ccnc2c1`, the “% Inhibition” value is recorded as 7% and the Z score is reported as -1.34.

As for `C[C@@H](CO)C1CCN(C(=O)c2cccc3c2CCC3=O)CC1`, the “% Inhibition” value came to 10% and the Z score is -1.98. As to `Cc1ccc(C(=O)N2CCC[C@H]2c2ccc3c(c2)OCCCO3)cc1NC(=O)c1ccco1`, the “% Inhibition” value is listed as -3% and the Z score is reported as 0.49.

On to `Cc1ccc2c(c1)c(-c1ccccc1)nc1sc(-c3ccccc3)c([O-])[n+]12`, for which the “% Inhibition” value is on record as -14% and the Z score came to 2.01. On to `CC[C@@H](c1ccnn1C)n1cnc(-c2ccccc2)c1-c1nccn1C`, for which the “% Inhibition” value is listed as -5% and the Z score came out at 0.89.

`CN(CC(C)(C)CNC(=O)C1CCCC1)C(=O)C1CCCC1`: the “% Inhibition” value is given as -9% and the Z score is reported as 0.81. On the same counts, the results for `CN(Cc1ncon1)S(=O)(=O)C[C@@]12CC[C@@H](CC1=O)C2(C)C` are -3% and 0.63.

Consider `Cc1cc(N2CCc3ccccc3C2)n2ncnc2n1`, for which the “% Inhibition” value is -18% and the Z score is recorded as 2.3. Consider `O=c1cc(-c2ccccc2)[nH]c2ccc(Br)cc12`, for which the “% Inhibition” value worked out at 4% and the Z score is -0.78. Regarding `Fc1ccc(CCn2ccnn2)cc1F`, the “% Inhibition” value is -8% and the Z score was found to be 1.09. Take `CNC(=O)C1CN(CC2CCCCN2C(=O)OC(C)(C)C)CCO1` (centres undefined): the “% Inhibition” value is reported as -4% and the Z score amounted to 0.86. Regarding `Cc1ccccc1COC1CN(C(=O)CN2CCCCCC2=O)C1`, the “% Inhibition” value was -10% and the Z score is reported as 1.48. In the case of `COc1ccccc1OCC(=O)N[C@H](c1ccc(Br)cc1)C1CCC1`, the “% Inhibition” value worked out at 12% and the Z score is -1.05. For `CC1CC(CN2C(=O)N[C@@H](C(C)C)C2=O)CCO1` (some centres undefined), the “% Inhibition” value was -12% and the Z score is given as 1.94. Take `COC[C@H]1CCN(Cc2cnc(-c3ccccc3)s2)C1`: the “% Inhibition” value is -14% and the Z score amounted to 1.4. Regarding `CCOC(=O)COc1ccc(NC(=O)N2CCOC3(CCC3)C2)cc1`, the “% Inhibition” value is recorded as -9% and the Z score was found to be 0.92. On to `Cc1cc(C(=O)NC[C@H](O)Cc2ccccc2)oc1Br`, for which the “% Inhibition” value was 3% and the Z score is on record as -0.49.

Take `CC(C)c1nc2n(n1)C1(CCCCC1)[C@@H]1CCCC[C@@H]1N2C(=O)c1ccc(F)cc1`: the “% Inhibition” value is listed as -27% and the Z score was 2.37. For the compound `CN1c2ccccc2N(Cc2cccnc2)S1(=O)=O`, the “% Inhibition” value is reported as 1% and the Z score is recorded as -0.17. For `Cc1ccc(CN(C)C(=O)NCCc2cc(C)c(O)c(C)c2)o1`, the “% Inhibition” value is given as 1% and the Z score is -0.26.

Regarding `O=C(c1cc(=O)c(OCc2ccccc2)c[nH]1)N1CCOCC1`, where the note is “2 µM”, the “% Inhibition” value is 2% and -2%.

Turning to `COc1cccc2sc(OC3CN(C(=O)c4ccco4)C3)nc12`, the “% Inhibition” value was 0% and the Z score was -0.04.

With `COc1ccc(Cn2ccnc2CNC2CCCCC2)cc1`, the “% Inhibition” value was -5% and the Z score is on record as 0.46. Consider `CCc1ccc(O)c(NC(=O)[C@H]2CCOC2)c1`, for which the “% Inhibition” value is reported as -1% and the Z score is recorded as 0.12. Regarding `COCCN(CC(=O)N1CCN(C)CC1)Cc1nccs1`, the “% Inhibition” value was -16% and the Z score stood at 1.53. Take `O=C(c1ocnc1C1CC1)N1CCn2c(nnc2C(F)(F)F)C1`: the “% Inhibition” value is -10% and the Z score is 1.1. For `CCc1nccn1CC(=O)N1CCCC[C@@H]1CCCOC`, the “% Inhibition” value was 8% and the Z score is recorded as -1.67. Take `COc1ccc([C@@H](C)CN2CCN(c3ccnc(C)n3)CC2)cc1`: the “% Inhibition” value is listed as 15% and the Z score is -1.89. `CC1CCC2(CC1)N=C(c1ccccc1)C(=O)N2` (centres undefined): the “% Inhibition” value turned out to be 34% and the Z score was -3.87. On the same counts, the results for `CCCNC(=O)c1ccc(N(C)Cc2nnc3ccccn23)nc1` are -24% and 3.45. Taken in the same sequence, the figures for `CC(C)N(Cc1cnn(C)c1)C(=O)c1cc2ccccc2c(=O)[nH]1` were -41% and 4.84. Regarding `O=C1CCC(c2ccccc2)(c2ccccc2)CN1CCN1CCOCC1`, the “% Inhibition” value was 0% and the Z score amounted to 0.07.
